Experimental data from US20250289848A1, “PEPTIDOMIMETIC INHIBITORS OF B-CATENIN/TCF PROTEIN-PROTEIN INTERACTION” (H. LEE MOFFITT CANCER CENTER AND RESEARCH INSTITUTE, INC., priority 2018, published 2025).

Molecular target: β-catenin/Tcf4 interaction (Homo sapiens (Human), UniProt P35222)
Details: read-out: Ki ± SD; β-catenin/Tcf FP competitive inhibition; mean ± SD, n = 3

Row | SMILES | Ki [µM]
1 | COC(=O)[C@H](CCC(=O)O)NC(=O)[C@H](CC(=O)O)NC(=O)[C@H](Cc1ccc2ccccc2c1)NC(=O)c1cc2ccc(Cl)cc2[nH]1 [Compound 11, (S)-4-((S)-3-Carboxy-2-((S)-2-(6-chloro-1H-indole-2-carboxamido)-3-(naphthalen-2-yl)propanamido)propanamido)-5-methoxy-5-oxopentanoic acid] | 89 ± 8.6
2 | COC(=O)[C@H](CCC(=O)O)NC(=O)[C@H](CC(=O)O)NC(=O)[C@H](Cc1ccc2ccccc2c1)NC(=O)c1cc2cc(OC)ccc2[nH]1 [Compound 15, (S)-4-((S)-3-Carboxy-2-((S)-2-(5-methoxy-1H-indole-2-carboxamido)-3-(naphthalen-2-yl)propanamido)propanamido)-5-methoxy-5-oxopentanoic acid] | > 100
3 | COC(=O)[C@H](CCC(=O)O)NC(=O)[C@H](CC(=O)O)NC(=O)[C@H](Cc1ccc2ccccc2c1)NC(=O)c1cc2cc(C)ccc2[nH]1 [Compound 14, (S)-4-((S)-3-Carboxy-2-((S)-2-(5-methyl-1H-indole-2-carboxamido)-3-(naphthalen-2-yl)propanamido)propanamido)-5-methoxy-5-oxopentanoic acid] | > 100
